Article PMC3253113, “Presenilin Is the Molecular Target of Acidic γ-Secretase Modulators in Living Cells” (PLoS ONE, 2012)

Target: PSEN1-NTF (Homo sapiens, UniProt P49768)
Assay: Photo-affinity labeling in vitro, N2a-ANPP membrane preparations
Assay type: binding
Conditions: N2a-ANPP membranes, 0.25% CHAPSO, 0.5 µM photo-probe, UV, streptavidin purification
Procedure: Subsequently, cells were UV-irradiated on ice for 30 min at 365 nm and for 30 min at 302 nm. As negative controls, UV irradiation was omitted or cells were incubated with DMSO vehicle or compound AR80, which was structurally identical to AR243 but lacked the biotin moiety. Cells were washed and harvested in PBS and incubated with hypotonic buffer (10 mM Tris pH 7.4, 1x protease inhibitor mix) for 10 min on ice. To prepare cellular membranes, cells were passed 10 times through a 30G needle and centrifuged at 800×g, 10 min, 4°C. The post-nuclear supernatant was centrifuged at 18.000×g, 45 min, 4°C. […] The total protein concentration of the membrane preparations was determined by BCA assay, concentrations and volumes of each sample were adjusted, and 5x RIPA buffer was added to a final concentration of 1x RIPA buffer (150 mM NaCl, 1.0% NP-40, 0.5% sodium deoxycholate, 0.1% SDS, […], pH 8.0). […] Protein concentrations were again determined and adjusted to equal levels prior to the addition of streptavidin magnetic beads (Invitrogen). […] The eluted material was separated on 12% Bis-Tris gels and analyzed by Western blotting. Chemiluminescence was recorded with a LAS 3000 ECL camera system (Fuji Photo Film GmbH, Duesseldorf, Germany) or on CL-XPosure film (Fisher Scientific GmbH, Schwerte, Germany). […]

O=C(O)CC1CCN(C(C#CCCCCOC(=O)CCCC[C@@H]2SC[C@@H]3NC(=O)N[C@@H]32)c2ccc(C3(C(F)(F)F)N=N3)cc2)C(c2ccc(C(F)(F)F)cc2)C1 (stereo partly drawn) [AR243, 2-(1-(7-((5-((3aS,4S,6aR)-2-oxohexahydro-1H-thieno[3,4-d]imidazol-4-yl)pentanoyl)oxy)-1-(4-(3(trifluoromethyl)-3H-diazirin-3-yl)phenyl)hept-2-yn-1-yl)-2-(4(trifluoromethyl)phenyl)piperidin-4-yl)acetic acid]
Photo-affinity labeling of PSEN1-NTF (Western blotting): bound the N-terminal fragment of PSEN1
